# Data published in PubChem BioAssay AID1347428 (National Center for Advancing Translational Sciences (NCATS), 2020).
# The campaign covered roughly 91,000 compounds. About 290 (0.32%) were called active. The inconclusive results got no clear call from the source; some entries with a clear call stand among them for comparison. Calls come from the whole dose curve; as a rule, active = well fitted inhibition curve with a large enough effect; inconclusive = small, poorly fitted or top-dose-only effect; inactive = no such curve, though single readings can be large or run the other way. Potencies beside an inconclusive call are fits to weak or partial responses and may not hold up.
# Target: Single-stranded DNA cytosine deaminase (Homo sapiens) (UniProt Q9GZX7)
# UniProt Q9GZX7, sequence (Q9GZX7 whole entry, looked up): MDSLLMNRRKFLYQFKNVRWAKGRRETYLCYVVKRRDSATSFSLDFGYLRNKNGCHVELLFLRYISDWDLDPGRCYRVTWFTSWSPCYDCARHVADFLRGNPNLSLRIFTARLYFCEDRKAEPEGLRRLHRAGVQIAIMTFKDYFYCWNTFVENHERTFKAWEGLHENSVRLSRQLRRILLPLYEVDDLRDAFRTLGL
# Assay: Primary qHTS assay for inhibitors of Activation Induced Cytidine Deaminase (AID): AID signal; note: nearly all actives have a fitted effect of over 25% in size
# Conditions: AID deamination FRET fluorescence, UDG-coupled, 4 h; series mostly up to 115 µM
# Potency is the fitted concentration of half-maximal effect; tags give direction and shape of the fitted curve.
row,SMILES,Potency
1,O=C(COCc1cc(-c2ccc(F)cc2)on1)Nc1cccc(C(F)(F)F)c1,"inconclusive: 39.8 µM [inhibitor, single point]"
2,Cc1cccc(Cn2c(CN3CCC(C(=O)NC(C)C)CC3)cc3ccccc32)c1,"inconclusive: 39.8 µM [inhibitor, single point]"
3,O=C(CSc1nc2c([nH]c3ccccc32)c(=O)n1-c1ccccc1F)Nc1cccc(Cl)c1,"inconclusive: 11.2 µM [inhibitor, full curve, poor fit]"
4,COCCOC(=O)C1=C(C)NC(C)=C(C(=O)OC/C=C/c2ccccc2)C1c1cccc([N+](=O)[O-])c1 (configuration not stated),"inconclusive: 56.2 µM [inhibitor, partial curve, poor fit]"
5,C#CCN1CCC(C(=O)N(C)Cc2ccc(Br)o2)CC1,inactive
6,COc1ccccc1/C=C/c1nc(C#N)c(NCc2ccccc2)o1,"inconclusive: 11.2 µM [inhibitor, partial curve, poor fit]"
7,Cc1ccc(C(=O)NCCc2csc(-c3cccc(F)c3)n2)cc1C,"inconclusive: 22.4 µM [inhibitor, full curve, poor fit]"
8,COc1ccc2[nH]c(C)c(C(=O)CN3CCC(Cc4ccccc4)CC3)c2c1,inactive
9,Cc1ccc(N(Cc2cccs2)C(=O)c2ccc(OC(C)C)cc2)cc1,"inconclusive: 56.2 µM [inhibitor, partial curve, poor fit]"
10,COc1ccc2c(CNC3CCC(C)CC3)c(C(=O)O)n(Cc3ccc(F)cc3)c2c1 (configuration not stated),inactive
11,COc1ccc(OCc2nc3ccccc3n2Cc2ccc(C(C)(C)C)cc2)cc1,"inconclusive: 79.4 µM [inhibitor, partial curve, poor fit]"
12,Cc1ccc(-c2nnc(SCc3ccccc3)o2)cc1,"inconclusive: 100 µM [inhibitor, partial curve, poor fit]"
13,Cc1ccc(C)c(N2CCN(CCCNC(=O)c3cnn(-c4cccc(Cl)c4)c3C3CCN(C(=O)OC(C)(C)C)CC3)CC2)c1,active: 35.5 µM
14,CN(C)CCNC(=O)CCn1ccc2cc(S(=O)(=O)N3CCCCC3)ccc21,inactive
15,C/C(=N\NC(=O)C1CC1c1ccccc1)c1ccc2c3c(cccc13)CC2 (configuration not stated),"inconclusive: 22.4 µM [inhibitor, partial curve, poor fit]"
16,CCC(C(=O)NCCc1ccc(OC)c(OC)c1OC)n1nc(C)c2sc3ccccc3c2c1=O (configuration not stated),"inconclusive: 44.7 µM [inhibitor, full curve, poor fit]"
17,C=C(C)COc1ccc2c(C)c(CCC(=O)NCc3ccc(S(N)(=O)=O)cc3)c(=O)oc2c1C,inactive
